According to paper PMC9911399, “Two distinct binding modes provide the RNA-binding protein RbFox with extraordinary sequence specificity”:
Numbering of substitutions follows the chain as printed; changes in the protein carry UniProt numbers. Some of the results follow.

B1: CAGCCGG (DNA:RNA)
RNA: GGGAGACCGGAAUUCAGAUUGUCCCAGCCGGUUAAAUCCCGUCGUAGCCACCA
DNA 1: CAATCTGAATTCCGGTCTCCC
DNA 2: TGGTGGCTACGACGGGATT
B2: AUAUGGU (DNA:RNA)
RNA: B1 RNA with C25A, A26U, G27A, C28U, C29G, G31U
DNA 1: CAATCTGAATTCCGGTCTCCC
DNA 2: TGGTGGCTACGACGGGATT
B3: UAUGUAC (DNA:RNA)
RNA: B1 RNA with C25U, G27U, C28G, C29U, G30A, G31C
DNA 1: CAATCTGAATTCCGGTCTCCC
DNA 2: TGGTGGCTACGACGGGATT
B4: AGUCUGG (DNA:RNA)
RNA: B1 RNA with C25A, A26G, G27U, C29U
DNA 1: CAATCTGAATTCCGGTCTCCC
DNA 2: TGGTGGCTACGACGGGATT
B5: CGGUAUC (DNA:RNA)
RNA: B1 RNA with A26G, C28U, C29A, G30U, G31C
DNA 1: CAATCTGAATTCCGGTCTCCC
DNA 2: TGGTGGCTACGACGGGATT
B6: GAAGGGU (DNA:RNA)
RNA: B1 RNA with C25G, G27A, C28G, C29G, G31U
DNA 1: CAATCTGAATTCCGGTCTCCC
DNA 2: TGGTGGCTACGACGGGATT
B7: CCGCUUA (DNA:RNA)
RNA: B1 RNA with A26C, C29U, G30U, G31A
DNA 1: CAATCTGAATTCCGGTCTCCC
DNA 2: TGGTGGCTACGACGGGATT
B8: UGACCUA (DNA:RNA)
RNA: B1 RNA with C25U, A26G, G27A, G30U, G31A
DNA 1: CAATCTGAATTCCGGTCTCCC
DNA 2: TGGTGGCTACGACGGGATT
B9: GCUCUAG (DNA:RNA)
RNA: B1 RNA with C25G, A26C, G27U, C29U, G30A
DNA 1: CAATCTGAATTCCGGTCTCCC
DNA 2: TGGTGGCTACGACGGGATT
B10: AACAGCU (DNA:RNA)
RNA: B1 RNA with C25A, G27C, C28A, C29G, G30C, G31U
DNA 1: CAATCTGAATTCCGGTCTCCC
DNA 2: TGGTGGCTACGACGGGATT
B11: UCUGAUC (DNA:RNA)
RNA: GGGAGACCGGAAUUCAGAUUGUCCUCUGAUCUUAAAUCCCGUCGUAGCCACCA
DNA 1: CAATCTGAATTCCGGTCTCCC
DNA 2: TGGTGGCTACGACGGGATT
B12: AUGGAUU (DNA:RNA)
RNA: B11 RNA with U25A, C26U, U27G, C31U
DNA 1: CAATCTGAATTCCGGTCTCCC
DNA 2: TGGTGGCTACGACGGGATT
B13: AAGACUG (DNA:RNA)
RNA: B1 RNA with C25A, C28A, G30U
DNA 1: CAATCTGAATTCCGGTCTCCC
DNA 2: TGGTGGCTACGACGGGATT
B14: GGGUGAC (DNA:RNA)
RNA: B1 RNA with C25G, A26G, C28U, C29G, G30A, G31C
DNA 1: CAATCTGAATTCCGGTCTCCC
DNA 2: TGGTGGCTACGACGGGATT
B15: UGCCGAA (DNA:RNA)
RNA: B1 RNA with C25U, A26G, G27C, C29G, G30A, G31A
DNA 1: CAATCTGAATTCCGGTCTCCC
DNA 2: TGGTGGCTACGACGGGATT
B16: UAUUAAG (DNA:RNA)
RNA: B11 RNA with C26A, G28U, U30A, C31G
DNA 1: CAATCTGAATTCCGGTCTCCC
DNA 2: TGGTGGCTACGACGGGATT
B17: AGCCAUA (DNA:RNA)
RNA: B11 RNA with U25A, C26G, U27C, G28C, C31A
DNA 1: CAATCTGAATTCCGGTCTCCC
DNA 2: TGGTGGCTACGACGGGATT
B18: AUCAUAA (DNA:RNA)
RNA: GGGAGACCGGAAUUCAGAUUGUCCAUCAUAAUUAAAUCCCGUCGUAGCCACCA
DNA 1: CAATCTGAATTCCGGTCTCCC
DNA 2: TGGTGGCTACGACGGGATT
B19: AUCUCUC (DNA:RNA)
RNA: B18 RNA with A28U, U29C, A30U, A31C
DNA 1: CAATCTGAATTCCGGTCTCCC
DNA 2: TGGTGGCTACGACGGGATT
B20: GGUGUUU (DNA:RNA)
RNA: B11 RNA with U25G, C26G, A29U, C31U
DNA 1: CAATCTGAATTCCGGTCTCCC
DNA 2: TGGTGGCTACGACGGGATT
B21: AGGCCUU (DNA:RNA)
RNA: B1 RNA with C25A, A26G, G30U, G31U
DNA 1: CAATCTGAATTCCGGTCTCCC
DNA 2: TGGTGGCTACGACGGGATT
B22: CGAUUCU (DNA:RNA)
RNA: B18 RNA with A25C, U26G, C27A, A28U, A30C, A31U
DNA 1: CAATCTGAATTCCGGTCTCCC
DNA 2: TGGTGGCTACGACGGGATT
B23: AAAGACG (DNA:RNA)
RNA: B1 RNA with C25A, G27A, C28G, C29A, G30C
DNA 1: CAATCTGAATTCCGGTCTCCC
DNA 2: TGGTGGCTACGACGGGATT
B24: CCUACGU (DNA:RNA)
RNA: B1 RNA with A26C, G27U, C28A, G31U
DNA 1: CAATCTGAATTCCGGTCTCCC
DNA 2: TGGTGGCTACGACGGGATT
B25: CCGCAGG (DNA:RNA)
RNA: B1 RNA with A26C, C29A
DNA 1: CAATCTGAATTCCGGTCTCCC
DNA 2: TGGTGGCTACGACGGGATT
B26: AUGCGGC (DNA:RNA)
RNA: B1 RNA with C25A, A26U, C29G, G31C
DNA 1: CAATCTGAATTCCGGTCTCCC
DNA 2: TGGTGGCTACGACGGGATT
B27: CUUGUUC (DNA:RNA)
RNA: B11 RNA with U25C, C26U, A29U
DNA 1: CAATCTGAATTCCGGTCTCCC
DNA 2: TGGTGGCTACGACGGGATT
B28: GCUGACC (DNA:RNA)
RNA: B11 RNA with U25G, U30C
DNA 1: CAATCTGAATTCCGGTCTCCC
DNA 2: TGGTGGCTACGACGGGATT
B29: CCGUCUC (DNA:RNA)
RNA: B1 RNA with A26C, C28U, G30U, G31C
DNA 1: CAATCTGAATTCCGGTCTCCC
DNA 2: TGGTGGCTACGACGGGATT
B30: UUCGGAG (DNA:RNA)
RNA: B18 RNA with A25U, A28G, U29G, A31G
DNA 1: CAATCTGAATTCCGGTCTCCC
DNA 2: TGGTGGCTACGACGGGATT
B31: AUUCCCG (DNA:RNA)
RNA: B1 RNA with C25A, A26U, G27U, G30C
DNA 1: CAATCTGAATTCCGGTCTCCC
DNA 2: TGGTGGCTACGACGGGATT

molecular target: T1, RBFOX1 RRM (Homo sapiens, UniProt Q9NWB1 109-208); assay: EMSA; HiTS-Eq, 1 nM pool, 10 min; buffer printed only for the single-RNA assays: 10 mM Tris pH 7.5, 150 mM NaCl, 3.4 mM EDTA, 0.001% NP-40, 30 C; conditions: tags: His6 N-terminal (pET28a); label: 5' 32P
T1 sequence: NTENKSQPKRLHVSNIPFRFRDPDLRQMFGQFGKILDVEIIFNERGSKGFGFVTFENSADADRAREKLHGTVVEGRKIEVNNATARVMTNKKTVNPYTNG
Summary of the method: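 A pool of RNA with 7 randomized nucleotides, 5′-radiolabelled and with DNA-annealed flanks, was equilibrated at 1 nM for 10 min in 50 µL with purified RbFox RRM, wild type or mutant, across increasing protein concentrations. Free RNA was separated by 8% native PAGE, excised, reverse-transcribed, barcoded by PCR and sequenced. Relative association constants were obtained from read-count changes of each RNA species versus the control reaction and normalised to the cognate motif.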

| Binder | binding signal |
| --- | --- |
| B1 | 0.00724 KA relative to UGCAUGU |
| B2 | 0.00889 KA relative to UGCAUGU |
| B3 | 0.00949 KA relative to UGCAUGU |
| B4 | 0.0172 KA relative to UGCAUGU |
| B5 | 0.00533 KA relative to UGCAUGU |
| B6 | 0.0119 KA relative to UGCAUGU |
| B7 | 0.00338 KA relative to UGCAUGU |
| B8 | 0.00667 KA relative to UGCAUGU |
| B9 | 0.012 KA relative to UGCAUGU |
| B10 | 0.00273 KA relative to UGCAUGU |
| B11 | 0.0179 KA relative to UGCAUGU |
| B12 | 0.0175 KA relative to UGCAUGU |
| B13 | 0.0112 KA relative to UGCAUGU |
| B14 | 0.0143 KA relative to UGCAUGU |
| B15 | 0.018 KA relative to UGCAUGU |
| B16 | 0.0136 KA relative to UGCAUGU |

| Binder | binding signal |
| --- | --- |
| B17 | 0.00205 KA relative to UGCAUGU |
| B18 | 0.0013 KA relative to UGCAUGU |
| B19 | 0.00233 KA relative to UGCAUGU |
| B20 | 0.0241 KA relative to UGCAUGU |
| B21 | 0.011 KA relative to UGCAUGU |
| B22 | 0.00957 KA relative to UGCAUGU |
| B23 | 0.00391 KA relative to UGCAUGU |
| B24 | 0.00236 KA relative to UGCAUGU |
| B25 | 0.0108 KA relative to UGCAUGU |
| B26 | 0.0126 KA relative to UGCAUGU |
| B27 | 0.0158 KA relative to UGCAUGU |
| B28 | 0.0183 KA relative to UGCAUGU |
| B29 | 0.0151 KA relative to UGCAUGU |
| B30 | 0.00668 KA relative to UGCAUGU |
| B31 | 0.000266 KA relative to UGCAUGU |
